PMC6212790
This is one part of the list. At the low end of the ranking, values are background and their order means little.

molecular target: T1, GST-Rok-C97-191 (UniProt O34857); assay: protein binding microarray; details: Rok is a gene silencer of Bacillus subtilis; high values mean tight binding; most listed sequences are background and not binding sites; double strand, one strand shown;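 also: rank score from −0.5 (least bound) to 0.5 (best bound)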
T1 sequence: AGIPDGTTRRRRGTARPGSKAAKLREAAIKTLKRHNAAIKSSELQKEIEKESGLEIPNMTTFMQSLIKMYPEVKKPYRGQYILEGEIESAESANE

Row | Sequence | binding signal [E-score]
1 | GTGATACA | 0.148
2 | CATACATC | 0.0281
3 | GCTTAACA | 0.105
4 | CGGCCTAC | -0.19
5 | AACAATCA | -0.00685
6 | CCCACAGA | -0.0946
7 | AGGTAAAT | 0.247
8 | CGACGAAA | -0.151
9 | CCTCGCTC | -0.125
10 | CCGTCCTA | 0.0295
11 | CGCATCCG | -0.229
12 | AAAGTGGA | -0.114
13 | ACAGAGAC | -0.165
14 | AGATCTCA | 0.113
15 | AACTAGAA | 0.363
16 | CGGATTTC | -0.106
17 | CCACAACA | -0.0725
18 | TAATTTGA | 0.185
19 | ATTCTGAC | -0.158
20 | GGGCTCAA | -0.323
21 | AGAGTTCA | -0.0509
22 | ACCTCATG | -0.163
23 | TACACAGA | 0.174
24 | CTGCTGTA | 0.0299
25 | CTTCGAGC | -0.266

Row | Sequence | binding signal [E-score]
26 | AAGAGCAA | -0.0707
27 | CGATTTGC | 0.05
28 | CGACCGAA | -0.0986
29 | ATAGTAAC | 0.28
30 | ACAACGGT | -0.123
31 | GCGGACCA | -0.0341
32 | ACCCGCGG | -0.237
33 | GGGAAAGA | -0.13
34 | AACAAGTT | 0.0415
35 | CATAGAAG | 0.188
36 | AAAGACCG | -0.0525
37 | GTTAGTTA | 0.325
38 | CAATGATG | 0.0738
39 | CTACCCTA | 0.226
40 | ACTTCCCT | 0.141
41 | GAGGCCAC | -0.228
42 | AGGGGGAT | -0.446
43 | CCAGGGAG | -0.125
44 | TGCTACAA | 0.207
45 | AGCGTGAC | -0.171
46 | GAAGCTTC | -0.139
47 | CGTACACG | -0.0266
48 | CTGTTAAC | -0.0355
49 | ACGAGCAC | -0.0971
50 | AGAGGCCT | -0.229

Row | Sequence | binding signal [E-score]
51 | AACTAGAC | 0.193
52 | AACACCGC | -0.0882
53 | AATTCAGC | 0.0672
54 | AAGCTCCG | 0.125
55 | AATCACGG | -0.0679
56 | AAAACTCG | 0.0917
57 | CTAGGGAA | -0.00393
58 | GAGATATC | 0.182
59 | AGGTGCTC | -0.21
60 | AATACCGA | 0.185
61 | ACCACTCA | 0.117
62 | CAAGGAAG | -0.172
63 | GCTTGCTA | 0.166
64 | TAAGGGGA | -0.101
65 | CCGTTTGA | -0.0316
66 | AAGGTGCC | -0.236
67 | CGCGAGAA | -0.0156
68 | CTTGCCAA | -0.0342
69 | ACAGCCAG | -0.133
70 | ATTAAACG | 0.0877
71 | AGAGTCGG | -0.123
72 | GACGAGAC | -0.148
73 | CGTCCTCC | -0.437
74 | CGACATTC | -0.0652
75 | CTTAAATA | 0.199

Row | Sequence | binding signal [E-score]
76 | ACATTCTA | 0.242
77 | AGGACGTA | 0.0872
78 | GGGATGGA | -0.212
79 | GTCAAGAA | 0.00189
80 | TCAAATAA | -0.00421
81 | CGTGTCGA | -0.142
82 | GCGACAAA | -0.0747
83 | AAGGCCTC | -0.356
84 | GTTCATCA | -0.0161
85 | ACAGTTGG | -0.0884
86 | AATATATA | 0.462
87 | CCAGTGAC | -0.156
88 | TGAGAGAA | -0.04
89 | CGTCGGGC | -0.101
90 | CTATCCAC | -0.0301
91 | CCAATGCG | -0.0622
92 | ATTACACA | 0.237
93 | GGGATAGA | -0.0322
94 | CGAGAGTA | 0.15
95 | AGGTGCTG | -0.144
96 | GATTCCCC | -0.15
97 | CCACTCAC | 0.0769
98 | GAGCATGA | 0.0816
99 | GATAGAAA | 0.333
100 | GAGGCGGC | -0.242

Row | Sequence | binding signal [E-score]
101 | TGGACACA | -0.203
102 | CGGTGTGC | -0.249
103 | AAAAGTGT | -0.0291
104 | AAGTTTCA | 0.107
105 | AGATTTAG | 0.096
106 | TCCTTGCA | 0.0133
107 | AATTTCAT | 0.286
108 | TGCCCTAA | -0.0538
109 | CGCACACC | -0.145
110 | CGCTAGCC | -0.204
111 | GAATAGTC | 0.0651
112 | ACCGTCAT | -0.109
113 | AACCATCG | 0.061
114 | CGCTGCTC | -0.354
115 | AAGACGAC | -0.0551
116 | CCTCAGAG | -0.24
117 | CGGTCGAC | -0.209
118 | GCGGTTCA | -0.0423
119 | CCCTGTGC | -0.0587
120 | AAAGAAAA | -0.0291
121 | CGATTTTA | 0.23
122 | CTCTTGTA | 0.113
123 | CCGTGTAC | 0.018
124 | TCCCCAGA | -0.313
125 | ATTAGATA | 0.32

Row | Sequence | binding signal [E-score]
126 | CTAATCCA | 0.00703
127 | ACTAGGCG | -0.104
128 | CACGGGAA | -0.0154
129 | AACTCTGT | -0.081
130 | CTGCATCC | 0.0247
131 | CGCTGTGA | -0.0932
132 | ACTTTTGC | -0.132
133 | CAACCAGC | -0.179
134 | ATGACAAT | 0.00548
135 | CTGGTGGA | -0.216
136 | GGTCACGA | -0.0446
137 | CACCAAAA | -0.0744
138 | ACACTGCG | -0.132
139 | AGGCCCCT | -0.347
140 | CTGGGAAC | -0.0999
141 | ATACATCA | 0.213
142 | AAACGCTG | -0.033
143 | GCGTGACC | -0.0291
144 | GGTCATAA | -0.00394
145 | CGACCCTA | -0.0318
146 | ATACGTTG | 0.0779
147 | AGCTATAC | 0.208
148 | AATCATGT | -0.0344
149 | ATCTAACG | 0.211
150 | ACACCTGC | -0.197

Row | Sequence | binding signal [E-score]
151 | CCCAGCAG | -0.112
152 | ACCAGCAT | 0.0241
153 | AACTCAAG | 0.0978
154 | CAGGAACG | -0.0533
155 | CATCAGGA | -0.199
156 | CACGGCTC | -0.105
157 | GGGTCGAC | -0.298
158 | ATATCCAT | 0.197
159 | CTTATAGA | 0.073
160 | AAGTCACC | -0.0302
161 | CGACTATC | -0.0118
162 | ATCCAAAA | 0.0916
163 | CCTTCTGA | -0.235
164 | CCCTGCGC | -0.162
165 | CCAAACCA | -0.102
166 | CTTGTGCC | -0.124
167 | GGCCACTA | -0.0465
168 | TCTGTTCA | -0.0916
169 | ACGCTATC | 0.121
170 | GAGCAAAA | -0.137
171 | AAATTTTG | 0.187
172 | CGCTTAGC | -0.224
